# In all, about 45,000 compounds went through this assay and about 200 (0.44%) were called active. Inconclusive results (about 7%) are left out. The call rests on the fitted dose curve; in most records, active means well fitted activation curve with a large enough effect; inconclusive means small, poorly fitted or top-dose-only effect; inactive means no such curve, though single readings can be large or run the other way. The list shows a part of the results.
# Test: qHTS of TDP-43 Inhibitors: NCGC Sytravon Library Screen; further: 0% is about no effect; nearly all actives have a fitted effect of over 55% in size
# Conditions: yeast TDP-43 toxicity rescue, BacTiter-Glo growth, 24 h; series mostly up to 46.1 µM; growth rescue (activation): at the top concentration
# Procedure, shortened: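 TDP-43-expressing yeast, pregrown in raffinose, seeded at OD600 0.02 in galactose medium with compound for 24 hr at 30 deg C. Growth read by BacTiter-Glo luminescence, so rescue of toxicity appears as activation.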
row,Structure (SMILES),growth rescue (activation)
1,O=C(Cc1ccccc1)Nn1c(O)c(/C=C2\C=Nc3ccccc32)sc1=S,inactive: 10.6%
2,O=C(Nc1ccc2c(c1)OCO2)c1noc2c1CCCC2,inactive: 16%
3,Cc1ccc(/C=C2/SC(=Nc3ccc(F)cc3)NC2=O)s1,inactive: 9.32%
4,Cc1ccc(NC(=O)C2(c3ccccc3)CC2(Cl)Cl)cc1C (stereo not given),inactive: 3.8%
5,Cc1ccccc1CCN(C(=O)Cn1nnc2ccccc21)C(C(=O)NCC1CCCO1)c1nc2ccccc2n1C (stereo not given),inactive: 0.783%
6,Cc1cc(C(F)(F)F)nn1CC(=O)N(C)c1ccccc1,inactive: 5.67%
7,Fc1ccc(N2CCN(C3=Nc4cccc5cccc3c45)CC2)cc1,inactive: 3.93%
8,Cc1cccc(NC(=O)c2ccc(CN3CCc4ccccc4C3)cc2)c1C,inactive: 17.4%
9,CCC(=O)N1CCC1(C)C(=O)NS(=O)(=O)c1cccc(C#N)c1 (stereo not given),inactive: 11.9%
10,Cc1cccc(Nc2nc(N)nc(CSC(=S)N3CCOCC3)n2)c1,inactive: -4.92%
11,Cc1cc(C)c2oc(C(=O)N3CCN(C)CC3)cc(=O)c2c1,inactive: -7.95%
12,OC(CNCC1COc2ccccc2O1)COc1ccccc1F (stereo not given),inactive: 3.4%
13,Cc1cc(Br)c(NC(=O)CCl)c(Br)c1,inactive: 1.8%
14,COc1cccc(NC(=O)CN(C)C(=O)C2CC3C=CC2C3)c1 (stereo not given),inactive: 3.56%
15,Cc1ccc(/C=C/C(=O)NC(=S)Nc2ccc(S(=O)(=O)Nc3cc(C)on3)cc2)cc1,inactive: 21.2%
16,O=C(NC(=S)Nc1nc2ccc(F)cc2s1)c1ccco1,inactive: -3.47%
17,O=C(O)c1ccc2c(=O)n3c(nc2c1)/C(=C/c1ccc(F)cc1)CC3,inactive: -9.94%
18,OCCN1CCN(c2ncnc3c2ncn3[C@H]2CN(Cc3ccc(-c4ccccc4)cc3)C[C@@H](CO)O2)CC1,inactive: 22.3%
19,O=C(CN1CCCC1c1cccs1)Nc1cc(S(=O)(=O)N2CCCC2)ccc1Cl (stereo not given),inactive: 1.52%
20,COc1ccc(N(Cc2ccccc2)S(=O)(=O)c2cc(C(=O)O)ccc2Cl)cc1,inactive: 20.9%
21,COc1ccc2nccnc2c1[N+](=O)[O-],inactive: -7.7%
22,O=C(Cc1cccs1)N=Nc1c(O)[nH]c2ccc(Br)cc12,inactive: 18.9%
23,O=C(CCc1ccccc1)NNC(=O)Cc1ccccc1,inactive: 0.598%
24,CCNC(=O)CCn1nc(-c2ccc(C)cc2)c2ccccc2c1=O,inactive: 5.71%
25,Cc1cccc(N2C(=O)CC(Sc3ncn[nH]3)C2=O)c1 (stereo not given),inactive: -9.01%
26,CCOc1ccc(OCC)c(NC(=O)c2ccc(-c3ccccc3)s2)c1,inactive: 7.28%
27,COc1cc(NC(=O)COC(=O)CSc2ccc3ccccc3c2)c(C)cc1[N+](=O)[O-],inactive: 7.18%
28,O=C(CCNC(=O)c1ccco1)Nc1nc(-c2ccccc2)cs1,inactive: -13.7%
29,CCCCNC(=O)CN1C(=O)NC2(CCOc3ccccc32)C1=O (stereo not given),inactive: 5.23%
30,CC(=O)C1=C(C)NC(SCC(=O)Nc2nccs2)=C(C#N)C1c1ccccc1Cl (stereo not given),inactive: 6.99%
